Test results taken from the supplement of paper PMC11417369.
± gives the standard deviation of the averaged measurements. The list shows a part of the results.

Tested on: PfAP2-G AP2 domain (GST-tagged)
Experiment: gcPBM binding intensity (ln(normalized median fluorescence intensity)); higher = stronger DNA binding
Procedure, shortened: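 GST-fused DNA-binding domains of P. falciparum, expressed in E. coli, were applied at about 25 μg on average for 1 h to an Agilent 4 × 180k array of primer-extended double-stranded 36-bp intergenic genomic probes and negative controls. Binding intensity is the highest Masliner-normalised natural-log median intensity across replicate spots of either probe orientation, measured with Alexa488 anti-GST antibody and a 488 nm scan.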

Sequence | gcPBM binding intensity (ln)
TAGTATCAATCTTATACATGCATAAAATAATTATAA [TGCATGCA_site1052] | 10 ± 0.13
GTGTTCTTGTTATACACACACATATTTATATTTATA [CACACA_site6615] | 10.4 ± 0.26
TTTTATTCATTAATTTGTACTTATCCTTTTGCTTAA [XGTACX_site1243] | 11 ± 0.53
TCATTAATTAAATCTTGTACATATTCATATATATAT [XGTACX_site2241] | 11.1 ± 0.49
AAAGTATAGATGTATACACACACCAAACGTTAAAAA [CACACA_site3081] | 10.13 ± 0.014
TAAGCCAAGGGATAAATAAAATAACAAAATGAAATC [GTGCAC_negctrl_site601] | 9.66 ± 0.36
TTTATTTATATAATTACACACATATATACGCAAATG [CACACA_site2794] | 10.3 ± 0.27
GACACATATAAATATTAACACACATAATGAATTATA [CACACA_site8881] | 9.815 ± 0.092
TAAAGTTTTTTTTTAACACACACATAATAAAATAAA [CACACA_site8042] | 10.2 ± 0.22
TAAAAAAATAAAAAAAAAAAATTATAAAATTATATA [GTGCAC_negctrl_site302] | 9.25 ± 0.071
AAATATATTATAAATTGTACGTTTATATATATTATT [XGTACX_site5110] | 11 ± 0.71
GATGATGTTACTTAAGTGCATATAAATTATATTTTA [GTGCAC_site9940] | 10.2 ± 0.18
ACATTATGCCATAAATGTACACATACATATACACAG [XGTACX_site1330] | 11.3 ± 0.83
TAACTAAGGAATAATACACACAGAAATATATATTTA [CACACA_site344] | 9.92 ± 0.042
AGCGTATTATACTGACGTACATTTTATGTAACTCCA [XGTACX_site2715] | 11.4 ± 1.1
AACATAAAATGGATATGTACATAAAAATATATACTC [XGTACX_site7775] | 11.2 ± 0.66
TACAACATATTCAAATGTACAAATATAGGAATGAAA [XGTACX_site2730] | 10.6 ± 0.2
CACACGCACAGACACACACACACATATAAATATGTA [CACACA_site6300] | 10.5 ± 0.43
ATATGATTTCACAAGACACACACATACAAATTTATA [CACACA_site9296] | 10.2 ± 0.2
TTATGTATTCATAACACATGCAAATAGGATCATATA [TGCATGCA_site731] | 10.04 ± 0.049
CGTTAGAGGGCTTTATCACACATGAAAAAAAAAAAA [CACACA_site5155] | 10.1 ± 0.49
TATATTTATTTTAACACACACATATATATATTATAT [CACACA_site4729] | 10.1 ± 0.15

Sequence | gcPBM binding intensity (ln)
TCCCAAGGAGTAGGCACACATAAAATATTATACATA [CACACA_site717] | 10.1 ± 0.13
TATATATATAACAACACACACAGATCATAAAACTGC [CACACA_site2161] | 10.08 ± 0.071
AAAAAAAAAAAAAACACACACAAATTTAATATATAT [CACACA_site1695] | 9.89 ± 0.14
AAAATTAAAGTAAGGACACACATATATAATACATAT [CACACA_site823] | 11.1 ± 0.7
TACACCAAAAAAAAACGTACAAAATCCCACCCAGAC [XGTACX_site4622] | 11.4 ± 0.54
AAAAAAAAAAAAAAAACACACACAAATTTAATATAT [CACACA_site8492] | 10.22 ± 0.092
TACCTAATATGTTATACACACATTAGAAGTACATAT [CACACA_site5375] | 11.6 ± 1.1
TGTAATAACGTTATAAAAAGTATAAAAAAAAAAAAA [CACACA_negctrl_site943] | 9.8 ± 0.45
TTATTTTTATTATTTTGTATATATATTTATAGAAAA [XGTACX_negctrl_site465] | 9.79 ± 0.16
TATATACTTTTTAATCACACTTCTTTAAAAAAAGTA [CACACA_negctrl_site1380] | 10.2 ± 0.38
TTTTAGGTCTGAATGTGTACTAAATAATATAAGTAT [XGTACX_site6554] | 11.3 ± 0.88
ATAAAAAAAAAAAAAAAATATATATATATATATATA [XGTACX_negctrl_site424] | 9.84 ± 0.6
AATAAATAAATAAATTAATAAATTAATAAATTAATA [GTGCAC_negctrl_site37] | 9.21 ± 0.2
CACACAAAGGAATATACACACATATTTATATTTATA [CACACA_site7841] | 9.905 ± 0.035
GTATATAATTTTTTATGTACTAAATTATATGTTTTT [XGTACX_site4907] | 10.9 ± 0.61
ATCTATTTGTAAAGGGTGCGCATATCAATAAAAAAT [GTGCAC_site9503] | 10.5 ± 0.43
CAAAATTTTTATAAGTCACACATTATCTAAGCTTAT [CACACA_site5747] | 10.14 ± 0.085
CTTATTTTGTTATAAGTGCATTTTTTAAAATTTCTT | 10.16 ± 0.057
GGAAGAAAACTTAGGTGTACATATAAAACGATATAA [XGTACX_site3118] | 11.5 ± 0.93
TATGAACACAGACACACACACAAAAAAAAAAAAAAA [CACACA_site7037] | 10.1 ± 0.59
ATAGTATACAGACACACACACACACCGATATATATA [CACACA_site8511] | 10.1 ± 0.13
TACTAACATAAAGACACACACCACATAAAATAAATA [CACACA_site7663] | 10.1 ± 0.14

Sequence | gcPBM binding intensity (ln)
TATTTTTAATATTTTGCATGCAGTATTTTATAAAAT [TGCATGCA_site250] | 10.1 ± 0.16
ACAATTCCCGTATGATGTACTTTTTTCCACTTTTTC [XGTACX_site1811] | 11.5 ± 0.91
TATACCTTTGCGTGTGCATGCGCTTATATATATTTT [TGCATGCA_site152] | 9.97 ± 0.057
TTTATGTGTATGTTTACACACATAAAAAAATATATG [CACACA_site3039] | 10.2 ± 0.27
TATGTTATTATTTGTACACACACATATATATCCTTG [CACACA_site5910] | 11.2 ± 0.61
AACAAATATCCCAAAAGTACACATATAAAAAAAAAA [XGTACX_site4126] | 11.3 ± 0.92
TTTTTGTTATTATGTGTGCACATATATATATATATA | 10.6 ± 0.54
CATACACCCAGACACACACACATATATATATATATA [CACACA_site634] | 10.3 ± 0.39
ATTATCTTATGTTATTTATTTGTCCCACATTTGTTA [TGCATGCA_negctrl_site402] | 10.8 ± 0.68
TTTTTTTTTTTTGGTAGTACATAATATTAATATAAT [XGTACX_site4422] | 11.6 ± 1
TATATTTTCCTGCAAACACACATATAAATGGGTAGA [CACACA_site4451] | 9.98 ± 0.014
GATATTTGTTCATATACACACTTTTGATAAAATATG [CACACA_site4807] | 10.33 ± 0.085
ATATATATATATATGGTGCATGAAAATTTACTTTGA | 10.1 ± 0.31
ATATACTCATTTAATACACACAAAGAGAAAATTAAT [CACACA_site1923] | 10.3 ± 0.34
ATAGTACAACAGGTTCTTGACAAACAATATGAATGT [GTGCAC_negctrl_site442] | 11 ± 0.83
TTTATATAATTTTTTTGTACATATATATGAATACAT [XGTACX_site2316] | 11 ± 0.64
TAATTTTTTTTTTTTTTTCATTCTTTTCCTTTGATT [CACACA_negctrl_site1365] | 9.54 ± 0.11
TTTTTTTTTTTTTGGTGTACATTTATAAAAAAAAAA [XGTACX_site8368] | 11.4 ± 0.88
ACACAAAAAAAAAAAAAAAAAAAAAAAAAAAAGGAA [CACACA_negctrl_site1162] | 10.1 ± 0.59
AATATGTACAGACATACACACATATATATATATATA [CACACA_site1222] | 11.2 ± 0.96
CATATCTCAATTTATGCATGCAGGATTTTTCTAATA [TGCATGCA_site516] | 9.95 ± 0.11
TTTTTAATAACACTTTTGAAAAATAAAATAAAATAA [CACACA_negctrl_site821] | 9.91 ± 0.36

Sequence | gcPBM binding intensity (ln)
TTTTATGTTCTTAATGCACACTTATAAGTATCTTAT [CACACA_site4895] | 10.4 ± 0.34
TTTTTTTATTATTCTTATATAAAAATTTTTTTTAAT [CACACA_negctrl_site159] | 9.54 ± 0.26
ACATATAAGATTATGTGTCCACAAAAAAATAAAACA [XGTACX_site2867] | 11.3 ± 0.67
AATAACAAAATAGGCACACGCACATATATATATATA [CACACA_site1497] | 10.2 ± 0.23
TACATATTTATATACACACACACACGGATATTTATA [CACACA_site7239] | 10.2 ± 0.13
ATTCAAAAGATGTATACACACATGTGGATAATATAA [CACACA_site2443] | 10.2 ± 0.11
GCACCCTGTATGAATGCACACATTCATAGAATTGCT [CACACA_site5475] | 9.95 ± 0.071
ATATATATAAAAGAAACAACATTTATTCAAAAGGTA [CACACA_negctrl_site749] | 9.76 ± 0.028
TTATTCTTTTAATATACACACTTTGTCTTTTCGCGC [CACACA_site5525] | 9.83 ± 0.099
TACTTTTATAAAAATTTTATCAAATTCTATATATGT [TGCATGCA_negctrl_site308] | 9.97 ± 0.16
TTTTAAATTTAGTGTAGTACACTTTTTTCAAATATA [XGTACX_site4659] | 11.7 ± 1.2
ATATTATCATTTTTTTTAATGGAAAAAAAAAAAAAA [CACACA_negctrl_site1298] | 9.88 ± 0.35
ATATAATTCAAATACAGTACATATACAATATATACA [XGTACX_site1191] | 10.9 ± 0.77
TAATTTTTTAAACACACACACATATATATATATATA [CACACA_site4230] | 10.3 ± 0.64
GAATTCCTTTGTGTATGTACATAATGATATTATTTT [XGTACX_site7369] | 10.9 ± 0.48
TGATCAAATAAGTTTGCATGTCAACAATGCATATAT [TGCATGCA_site1025] | 9.93 ± 0.099
CCCCTTGTGGATTCTACACACAAAAAGTCGTCAAAA [CACACA_site821] | 10.8 ± 0.48
ATATACATATCATGTAGTACAATTTTTTTACTTTTT [XGTACX_site7988] | 11.3 ± 0.88
TAAAAAAATAAAATTACACACATATATAGATATATA [CACACA_site7273] | 9.47 ± 0.12
CACTTTTTTTAAATGTGTACGTATATGAAAATATCA [XGTACX_site4854] | 11.7 ± 1
TAAACAAAAAGGAAGAGTACTTGTAAAATTTGTAAA [XGTACX_site3003] | 11.2 ± 0.75
TATTTATTTGTACATATACACACTTAAATATGTTTA [CACACA_site3902] | 11.1 ± 0.71
